Among the data in PubChem BioAssay AID463173 (ICCB-Longwood Screening Facility, Harvard Medical School, 2010) are survival values, retold here.

Hit rate of the full screen: of about 52,000 compounds, about 1,700 (3.3%) were called active. No stated cut-off is given here; in the data, active means survival mostly below about 52% (no sharp cut-off); inactive means mostly above about 56%. The list shows a part of the results.

The test relates to Wild type. Briefly: S. aureus survival, RN4220 and DeltatarO strains – OD600, teichoic acid synthesis inhibitors, primary screen (AID 463173). The conditions noted are these: S. aureus RN4220 wild type/DeltatarO growth, OD600, 18 h, hits give low values, screened at 18.75 µg/mL (by protocol).
`CCOc1ccc(S(=O)(=O)N2CCC(n3c(C)nc4cccnc43)CC2)cc1`: the survival was inactive: 89%.

On to `CC(=O)Nc1ccc2nc(SCCOc3ccccc3Cl)sc2c1`, for which the survival is active: 9%.

Take `CCOC(=O)c1c(C)[nH]c(C)c1S(=O)(=O)N(C)CC(=O)Nc1ccc(C)c(F)c1`: the survival was inactive: 83%.

As for `CCCCN(c1ccccc1)c1ncnc2c1cnn2-c1cccc(C)c1`, the survival was inactive: 68%.

With `CN(C(=O)CSc1nc2ccccc2n1CC(=O)N(C)C1CCCCC1)c1ccc(F)cc1`, the survival is inactive: 120%.

On to `COC(=O)c1cc2sccc2n1Cc1nc(-c2ccc(C)cc2)oc1C`, for which the survival is inactive: 28%.

`Cc1cc(C)c(NC(=O)C2CCCN(C(=O)c3cnn(-c4ccccc4)c3-n3cccc3)C2)c(C)c1` (stereo not given): the survival was inactive: 77%.

For the compound `CCc1ccccc1NC(=O)c1ccc2c(c1)c(C)c(C)n2Cc1ccccc1`, the survival was inactive: 68%.

`CCc1ccc(S(=O)(=O)c2cn(Cc3ccc(OC)cc3)c3cc(OC)c(OC)cc3c2=O)cc1`: the survival is inactive: 84%.

Consider `O=C(COc1ccc(Br)cc1)Nc1ccc(C(=O)OC2CCCCC2)cc1`, for which the survival was inactive: 81%.

Turning to `CCOc1ccc(NC(=O)Cn2c(=O)n(-c3ccccc3)c(=O)c3c4c(sc32)CCCC4)cc1`, the survival was inactive: 102%.

As to `COc1ccc(NC(=O)CCc2c(C)nc3cc(-c4cccc(F)c4)nn3c2C)cc1Cl`, the survival is inactive: 131%.

In the case of `O=C(Nc1cccnc1)C(Cc1ccccc1)N1C(=O)c2ccccc2C1=O` (stereo not given), the survival was inactive: 108%.

Take `CCc1nnc2c3ccccc3nc(N3CCN(c4cc(Cl)ccc4C)CC3)n12`: the survival is inactive: 126%.

For the compound `CCc1nc2nc(C)cc(Nc3ccc(F)c(Cl)c3)n2n1`, the survival was inactive: 71%.

Regarding `Cc1ccc(CN2CCC(CNC(=O)Nc3cccc(C)c3C)C2)cc1` (stereo not given), the survival is inactive: 119%.

For `O=C1CC(c2ccc(Br)cc2)c2c(ccc3ccccc23)N1` (stereo not given), the survival was inactive: 39%.

With `Cc1c(Cl)cccc1NC(=O)Cn1c(=O)n(Cc2ccco2)c(=O)c2oc3ccccc3c21`, the survival was inactive: 84%.

With `COC(=O)c1c(Oc2ccc(Br)cc2)nnc(-c2ccccc2)c1-c1ccccc1`, the survival was inactive: 100%.

For the compound `Cc1cccc(C(=O)Nc2ccccc2OCc2cc(=O)n3cc(C)ccc3n2)c1`, the survival was inactive: 47%.

As for `CC(=O)N1CCCc2cc(S(=O)(=O)N3CCCC(C(=O)Nc4ccc(C)c(F)c4)C3)ccc21` (stereo not given), the survival was inactive: 73%.

`COc1cc(OC)c2c(C)c(CC(=O)N3CCCCC3)c(=O)oc2c1`: the survival is inactive: 84%.

For the compound `Clc1ccc(C2NCCS2)cc1` (stereo not given), the survival is inactive: 107%.

In the case of `COc1ccccc1-c1c(C)nn2c(N3CCN(c4ccc(F)cc4)CC3)cc(C)nc12`, the survival is inactive: 88%.

For `CC(C)n1c(=O)c2oc3ccccc3c2n(CC(=O)Nc2ccccc2Cl)c1=O`, the survival is inactive: 92%.

For `COc1cccc(-n2c(=O)c3c(C)c(C)sc3n(Cc3ccccc3C#N)c2=O)c1`, the survival is inactive: 79%.

Consider `CCOC(=O)c1ccccc1NC(=O)c1c(C)oc2ncnc(N3CCOCC3)c12`, for which the survival was inactive: 85%.

In the case of `COc1ccc(-c2nc3sc(CCNC(=O)C(=O)Nc4ccccc4C#N)c(C)n3n2)cc1`, the survival was inactive: 85%.

For the compound `CCOc1ccc(CNC(=O)c2cc3ccccn3n2)cc1`, the survival was inactive: 64%.

For the compound `CCc1ccc(CCC(=O)Nc2ccc(C)c(C)c2)o1`, the survival is inactive: 142%.

With `COCCCNC(=O)c1ccc(Cn2c(=O)c3ccccc3n(Cc3ccc(Cl)cc3)c2=O)cc1`, the survival is inactive: 91%.

Consider `Cc1cccc(-n2c(SCC(=O)Nc3ccc(C)c(C)c3)nc3n[nH]c(C)c3c2=N)c1`, for which the survival was inactive: 76%.

`O=C(CN1CCN(Cc2ccccc2F)C1=O)NCc1ccccc1`: the survival is inactive: 127%.

As for `Cc1ccc(C(=O)N(Cc2ccco2)c2ccccn2)cc1`, the survival is inactive: 90%.

In the case of `Cc1ccc(CNC(=O)c2c(Nc3ccccc3C)sc(C(=O)c3ccc(F)cc3)c2N)cc1`, the survival is active: -3%.

For the compound `COc1ccc(CC(=O)NCC(c2cccs2)S(=O)(=O)c2ccc(F)cc2)cc1` (stereo not given), the survival is inactive: 102%.

As for `COc1cccc(-c2nn(C)c3sc(C(=O)NCc4ccc(OC)cc4OC)cc23)c1`, the survival is inactive: 77%.

`COc1ccc(CCNC(=O)c2ccc(Cn3c(SCc4ccccc4)nc4cccnc43)cc2)cc1`: the survival is inactive: 85%.

With `CC(C)c1cc(-c2nc(-c3ccc(Cl)cc3)no2)n[nH]1`, the survival was inactive: 67%.

Consider `CCc1cnc2c(c1SC(C(C)=O)C(=O)N(C)C)c(=O)n(C)c(=O)n2C` (stereo not given), for which the survival was inactive: 78%.

Regarding `O=C(CCn1c(=O)c2ccccc2n(CC(=O)Nc2ccc(F)cc2)c1=O)NCCc1ccccc1`, the survival was inactive: 80%.

Regarding `COc1cc(NC(=O)c2nn(C)c3c2COc2ccccc2-3)cc(OC)c1OC`, the survival is inactive: 93%.

As to `CCOc1ccccc1NC(=O)C1=C(C)Nc2ncnn2C1c1ccco1` (stereo not given), the survival was inactive: 88%.

On to `COc1ccccc1C(=O)Nc1ccc(C(=O)OCc2cc(=O)n3c4c(sc3n2)CCCC4)cc1`, for which the survival was inactive: 32%.

Turning to `Cc1ccc(CNC(=O)c2c(Nc3c(C)cccc3C)sc(C(=O)c3ccccc3)c2N)cc1`, the survival was inactive: 47%.

As to `CCOc1ccc(C2C(C(N)=O)=C(C)Nc3nc(SCc4ccccc4F)nn32)cc1` (stereo not given), the survival is inactive: 87%.

Turning to `Cc1cccc(NC(=O)Cn2c(=O)n(Cc3ccccc3)c(=O)c3oc4ccccc4c32)c1C`, the survival was inactive: 72%.

Regarding `CC(C)c1ccc(NC(=O)c2ccc(CN3CC(=O)N4CCCCC4C3=O)cc2)cc1` (stereo not given), the survival was inactive: 90%.

Turning to `COc1ccccc1NC(=O)c1cnn(-c2ccccc2)c1-n1cccc1`, the survival is inactive: 99%.

Turning to `CC(C)NC(=O)C1CCN(C(=O)C(C(=O)c2ccccc2)n2cc(Cl)ccc2=O)CC1` (stereo not given), the survival is inactive: 109%.

Turning to `CN(C)c1ccc(CNC(=O)c2ccc3nc(Cc4ccccc4)oc3c2)cc1`, the survival is inactive: 88%.

On to `Cc1cc(C)c(NC(=O)C(=O)NCCc2csc(-c3ccc(F)cc3)n2)c(C)c1`, for which the survival is inactive: 76%.

Consider `O=C(O)CCn1ccc2cc(S(=O)(=O)N3CCCCCC3)ccc21`, for which the survival is inactive: 77%.

For the compound `CSc1ccc(CCNC(=O)c2csc3c2CCCCC3)cc1`, the survival is inactive: 69%.

Consider `CC(C)CSc1n[nH]c(N)n1`, for which the survival was inactive: 102%.

For `COc1ccccc1Nc1c2c(nc3ccc(NC(=O)c4ccc(N(C)C)cc4)cc13)CCCC2`, the survival was inactive: 110%.

With `Cc1ccc(C(=O)c2c(N)c(C(=O)Nc3cccc(C(F)(F)F)c3)c3ccccn23)cc1`, the survival was inactive: 132%.

Turning to `Cc1ccc(-n2c(=O)c3oc4ccccc4c3n(Cc3cccc(F)c3)c2=O)cc1C`, the survival was inactive: 83%.

Take `COc1cc(Nc2nc(-c3ccc(OC)c(OC)c3)nc3ccccc23)cc(OC)c1`: the survival was active: 0%.

Take `Cc1cccn2c(=O)c(C(=O)N3CCN(c4ccccc4)CC3)cnc12`: the survival is inactive: 22%.

Turning to `CCCCOc1ccc(C(=O)Nc2cccc(-c3nc4ccccc4o3)c2C)cc1`, the survival was inactive: 77%.

On to `Cc1nc2nc(NCc3ccc(Br)cc3)[nH]n2c(=O)c1Cc1ccccc1`, for which the survival is inactive: 63%.

As for `CCc1ccc(-n2c(=O)c3ccccc3n(Cc3ccccc3C#N)c2=O)cc1`, the survival is inactive: 90%.

Consider `CC(C)c1ccc(NC(=O)c2ccc(=O)n(Cc3ccccc3)c2)cc1`, for which the survival was inactive: 80%.

`CCCC(=O)Nc1ccc2oc(-c3ccc(O)c(Br)c3)nc2c1`: the survival was inactive: 79%.

On to `CCCCC(CC)CNC(=O)CCCCCn1c(=O)[nH]c2ccsc2c1=O` (stereo not given), for which the survival was inactive: 70%.

`O=C(c1ccc2c(c1)N(Cc1ccc(Cl)cc1)C(=O)c1ccccc1S2(=O)=O)N1CCOCC1`: the survival is inactive: 94%.

With `CCOc1ccc2[nH]c(=O)c(-c3nc4cccc(C)n4c3NCc3ccco3)cc2c1`, the survival is inactive: 108%.

As for `O=C(CSc1nc2c(oc3ccccc32)c(=O)n1-c1ccccc1)Nc1ccc(F)c(Cl)c1`, the survival was inactive: 70%.

As for `COc1ccc(OC)c(NC(=O)C2=C(C)C(=O)OC23CCN(C(C)C)CC3)c1`, the survival was active: 0%.

Consider `Fc1ccc(N2CCN(c3ncnc4onc(-c5ccc(Cl)cc5)c34)CC2)cc1`, for which the survival is inactive: 81%.

On to `O=C(O)Cn1ncc2ccccc2c1=O`, for which the survival is inactive: 111%.

In the case of `COc1cccc(C2C(C(N)=O)=C(C)Nc3ncnn32)c1` (stereo not given), the survival is inactive: 89%.

On to `CCOC(=O)c1c(NC(C)=O)c2c3c(sc2n1Cc1cc(C)ccc1C)CCCC3`, for which the survival is inactive: 80%.

As for `CCOc1ccccc1NC(=O)Cn1c(=O)n(Cc2ccco2)c(=O)c2sc3ccccc3c21`, the survival was inactive: 60%.

As for `COc1ccccc1N(CC(=O)Nc1ccccc1C(F)(F)F)S(=O)(=O)c1ccc(C)cc1`, the survival was inactive: 76%.

Regarding `Cc1ccc(C)c(N2CCN(C(=O)Cn3nc(C)c4sc5ccccc5c4c3=O)CC2)c1`, the survival is inactive: 50%.

`COC(=O)c1ccc(Cc2ccccc2)o1`: the survival is inactive: 109%.

Regarding `COc1ccccc1NS(=O)(=O)c1cn(C)c(C)n1`, the survival was active: 10%.

On to `COc1ccc(N2CC(NC(=O)COc3cccc(C)c3)CC2=O)cc1OC` (stereo not given), for which the survival is inactive: 68%.

Regarding `Cc1oc2ccc(O)c(CN3CCCCCC3)c2c1C(=O)Nc1cccc(C(F)(F)F)c1`, the survival was inactive: 30%.

Turning to `O=C1C(c2nc3ccccc3[nH]2)=C(O)c2ccccc21`, the survival was inactive: 109%.

On to `CCC(O)c1nc2ccccc2n1Cc1cc(C)ccc1C` (stereo not given), for which the survival is inactive: 99%.

As for `Cc1ccc(NC(=O)C2CCN(S(=O)(=O)c3ccc4c(c3)CCCC(=O)N4)CC2)cc1N(C)C`, the survival was inactive: 129%.

As to `COc1ccc(OC)c(NC(=O)C2CCN(S(=O)(=O)c3ccc4c(c3)CC(C)N4C(C)=O)CC2)c1` (stereo not given), the survival was inactive: 59%.

As for `CCOc1ccc(NC(=O)CSc2nc3ccsc3c(=O)n2CCC(C)C)cc1`, the survival was inactive: 72%.

Consider `CCCCn1c(CCCN2C(=O)c3ccccc3C2=O)nc2ccccc2c1=O`, for which the survival was inactive: 104%.

For the compound `COc1ccc(-c2nc(CSCC(=O)NCCC(C)C)c(C)o2)cc1OC`, the survival was inactive: 80%.

Consider `COc1ccc(OC)c(NC(=O)C(C)n2c(=O)c(-c3ccccc3NC(C)=O)nc3ccccc32)c1` (stereo not given), for which the survival is inactive: 109%.

Turning to `O=C1C2C3c4ccccc4C(c4ccccc43)C2C(=O)N1O` (stereo not given), the survival is inactive: 118%.
